In the RNAGym collection of RNA variant scans (doi:10.1093/nar/gkz1192):
Read counts are not given, so values of variants with three or more changes are uncertain.

B1: CPEB3 Ribozyme (parent)
chain: UAACAGGGGGCCACAGCAGAAGCGUUCACGUCGCAGCCCCUGUCAGAUUCUGGUGAAUCUGCGAAUUCUGCUGUAUAUCUC

Variants of: B1
Assay: self-cleavage, relative activity (ratio to wild type); higher = more cleavage; in vitro, sequencing
Summary of the method: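 Libraries of CPEB3 self-cleaving ribozyme mutants came from rounds of error-prone PCR and carried barcodes, which DNA sequencing matched to variants. In vitro transcription used T7 RNA polymerase at 37°C for 5 hours, with a further 15 min in DNase I before EDTA stopped the reaction; the ribozymes cleaved during both steps. The RNA was reverse transcribed with template switching and sequenced on Illumina. Relative activity is the cleaved/total read fraction of a variant divided by that of the unmutated ribozyme, averaged over three batches with at least 5 reads.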

Variant | self-cleavage
AAACAGGGGGCCACAUCAGAAGCGUUCACGUCGCAGCCCCCGUCAGAUUCUGGUGAAUCUGCGAGUUCUGCUGUAUAUCUC [U1A G16U U41C A65G] | 0.13
AAACAGGGGGCCACAGCAUAAGCGUUCACGUCGCAGCCCCUGUCGGAUUCUGGUGAGUCUGCGUAUUCUGCUGUAUAUCUC [U1A G19U A45G A57G A64U] | 0.1
AAACAGGGGGCCACAGCAUAAGCGCUCACGUCGCAUCCCCUGUCGGAUUCUGGUGAUUCUGCGGAUUCUGCUGUAUAUCUC [U1A G19U U25C G36U A45G A57U A64G] | 0.1
AAACAGGGGGCCACAGCAGAAGCGUUCACAUCGCAGCCCCCGCCAGAAUCUGGUGAAUCUGCGAAUUCUGCUGUAUAUCUC [U1A G30A U41C U43C U48A] | 0.32
AAACAGGGGGCCACAGCAGAAGCGUUCACCUCGCAGUCCCUGACAGAUUCUGGUGAAUCUGCGUAUUCUGCUGUAUAUCUC [U1A G30C C37U U43A A64U] | 0.17
AAACAGGGGGCCACAGCAGAAGCGUUCACGUCUCAGCCCCUGUCAGGUUCUGGUGAAUCUGCGAAUUCAGCUGUAUAUCUC [U1A G33U A47G U69A] | 0.18
AAACAGGGGGCCACAGCAGAAGCGUUCACGUCUCAGCCCCUGUCAGAUUCUGGCGAAUCUGCGAAUUCUGCUGUAUAUCUC [U1A G33U U54C] | 0.19
AAACAGGGGGCCACAGCAGAAGCGUUCACGUCGCAUCCCCUGUCAGACUCUGGUAAAUCUGCGAAUACUGCUGUAUACCUC [U1A G36U U48C G55A U67A U78C] | 0.08
AAACAGGGGGCCACAGCAGAAGCGUUCACGUCGCAGCCCCUAUGAGAUUCUGGUGAAUCUGCGAAUUCUGCUGUAUAUCUC [U1A G42A C44G] | 0.06
AAACAGGGGGCCACAGCAGAAGCGUUCACGUCGCAGCCCCUGUCAGAUUCUGAUGAAUCUGCGAAUUCUGCUGUACUUCUC [U1A G53A U76C A77U] | 1.16
AAACAGGGGGCCACAGCAGAAGCGUUCACGUCGCAGCCCCUGUCAGAUUCUGGUGAAUCUGCAAACUCUGCUGUAUAUCUC [U1A G63A U66C] | 0.28
AAACAGGGGGCCACAGCAGAAGCGAUCACGUCGCAGCCCCUGUCAGGUUCUGGUAAAUCUGCGAAUUCUGCCGUAUAUCUC [U1A U25A A47G G55A U72C] | 0.06
AAACAGGGGGCCACAGCAGAAGCGAUCACGCCGCAGCCCCUGUCAGAUUCUGGCGAAUCUGCGAAUUCUGCUGUAUAUCAC [U1A U25A U31C U54C U80A] | 0.09
AAACAGGGGGCCACAGCAGAAGCGCUCACGUCGCAACCCCUGUCAGAUUCUGGUGAAUCUGCGAAUUCUGCUGUAUAUCUC [U1A U25C G36A] | 0.06
AAACAGGGGGCCACAGCAGAAGCGCUCACGUCGCAGCCCCUGUCAGAUUCAGGUGUAUCUGCGACUUCUGCUAUAUAUCUC [U1A U25C U51A A56U A65C G73A] | 0.16
AAACAGGGGGCCACAGCAGAAGCGCUCACGUCGCAGCCCCUGUCAGAUUCUGGAGAAUCUGCGAACUCUGCUGUAUUUCUC [U1A U25C U54A U66C A77U] | 0.18
AAACAGGGGGCCACAGCAGAAGCGCUCACGUCGCAGCCCCUGUCAGAUUCUGGUGAAUCCGCGUAUUCUGCUGUAUAUCUC [U1A U25C U60C A64U] | 0.14

Variant | self-cleavage
AAACAGGGGGCCACAGCAGAAGCGUCCUCGUCGAAGCCACUGUCAGAUCCAGGUGAAUCUGCGAAUUCUGCUGUAUAUCUC [U1A U26C A28U C34A C39A U49C U51A] | 0.16
AAACAGGGGGCCACAGCAGAAGCGUCAACGUCGCAGCCCCUGUCAGAUUCUGGUGAAUCUGCGAAUUCUGCUGUAUAUCUC [U1A U26C C27A] | 0.11
AAACAGGGGGCCACAGCAGAAGCGUUCACGCCGCAGCCCCUGUCAGAUUCUGGUGGAUCUGCGGAUUCUGCUGUACAACUC [U1A U31C A56G A64G U76C U78A] | 0.18
AAACAGGGGGCCACAGCAGAAGCGUUCACGCCGCAGCCCCUGUCAGAUUCCGGUGAAUCCGCGAAUUCUGCUGUAUAUCCC [U1A U31C U51C U60C U80C] | 0.18
AAACAGGGGGCCACAGCAGAAGCGUUCACGCCGCAGCCCCUGUCAGAUUCUGGAGAGUCUGCGAGUUCUGCCGUAUAUCUC [U1A U31C U54A A57G A65G U72C] | 0.29
AAACAGGGGGCCACAGCAGAAGCGUUCACGUCGCAGCCCCCGACAGAUUCCGGUGAAUCUGCGAAUUCUGCUGUAUAUCUC [U1A U41C U43A U51C] | 0.51
AAACAGGGGGCCACAGCAGAAGCGUUCACGUCGCAGCCCCCGUCAGAUUCAGGUGAAUCUGCGAAUUCUGCUGUAUAUCUC [U1A U41C U51A] | 1.09
AAACAGGGGGCCACAGCAGAAGCGUUCACGUCGCAGCCCCCGUCAGAUUCAGGUGAAUCUGCGAACUCAGCUGUAUAUCUC [U1A U41C U51A U66C U69A] | 0.47
AAACAGGGGGCCACAGCAGAAGCGUUCACGUCGCAGCCCCCGUCAGAUUCUGGUGAAUCUGCGAACUCUGCUGUAUAUCUC [U1A U41C U66C] | 0.33
AAACAGGGGGCCACAGCAGAAGCGUUCACGUCGCAGCCCCUGACAGAUUCUGGUGAACCUGCGAAUUCUUCUGCAUAUCUC [U1A U43A U58C G70U U74C] | 0.2
AAACAGGGGGCCACAGCAGAAGCGUUCACGUCGCAGCCCCUGCCAGAUUCUGGUGAAUCUGCGGAUUCAGCAGUAUAUCUC [U1A U43C A64G U69A U72A] | 0.08
AAACAGGGGGCCACAGCAGAAGCGUUCACGUCGCAGCCCCUGCCAGAUUCUGGUGAAUCUGCGAAUCCUGCUGUAUAUCUC [U1A U43C U67C] | 0.21
AAACAGGGGGCCACAGCAGAAGCGUUCACGUCGCAGCCCCUGUCAGACUCCGGCGAAUCUGCGAAUUCUGCUGUAUGUCUC [U1A U48C U51C U54C A77G] | 0.33
AAACAGGGGGCCACAGCAGAAGCGUUCACGUCGCAGCCCCUGUCAGAUACAGGUGAAUCUGCGAAUUCUGCUGUAUAUCUC [U1A U49A U51A] | 0.24
AAACAGGGGGCCACAGCAGAAGCGUUCACGUCGCAGCCCCUGUCAGAUCCUGAUGAAUCUGCGAAUUCAGCUGUAUAUCUC [U1A U49C G53A U69A] | 0.11
AAACAGGGGGCCACAGCAGAAGCGUUCACGUCGCAGCCCCUGUCAGAUUCAGGAGAAUCUGCGGAUUCCGCUGUAUCACUC [U1A U51A U54A A64G U69C A77C U78A] | 0.49
AAACAGGGGGCCACAGCAGAAGCGUUCACGUCGCAGCCCCUGUCAGAUUCUGGAGAAUCUGCGAGUUCUGCAGUAUAUCUC [U1A U54A A65G U72A] | 0.16
